Measurements taken from PubChem BioAssay AID1814 (Broad Institute, 2009).
Hit rate of the full screen: of about 300,000 compounds, about 22,000 (7.3%) were called active. Inconclusive results, whose numbers are uncertain, are shown with a selection of clear calls. No stated cut-off is given here; in the data, active means activity score below about -60%; inconclusive means mostly about -28% to -61%; inactive means positive scores.

test: Activators via SNCA 5'UTR binding, MLPCN (AID 1814); settings: alpha-synuclein 5'UTR reporter, activators screen; active compounds read low; tested at 7.5 µM

| SMILES | activity score |
| --- | --- |
| O=C(Nc1ccccn1)c1ccc(Cl)c(S(=O)(=O)N2CCCC2)c1 | inconclusive: -61.3% |
| O=C(NC1=NCCS1)c1ccc(Cl)c(S(=O)(=O)N2CCCCCC2)c1 | inconclusive: -41.5% |
| O=C(Nc1nc(=O)c2ccccc2s1)c1ccc(Cl)cc1 | active: -140% |
| O=C(N/N=C/c1cccs1)c1n[nH]c2c1CCC2 | inactive: 67.9% |
| Cc1nc(-c2ccc3c(c2)CCC(=O)N3)cs1 | inconclusive: -39.4% |
| O=c1[nH]c(Cc2cccs2)nc2ccccc12 | inconclusive: -49% |
| O=C(O)c1ccc2c(c1)C(=O)N(c1cccc(-c3nc4ccccc4s3)c1)C2=O | inconclusive: -40.5% |
| CCOc1ccc2nc(NC(=O)CN3CCC(n4nnc5cc(F)ccc54)CC3)sc2c1 | inconclusive: -22.2% |
| COc1ccc(NC(=S)NC(NC(=O)CCl)C(Cl)(Cl)Cl)c([N+](=O)[O-])c1 (configuration not stated) | inconclusive: -51.7% |
| CC(=O)Nc1ccc(NC(=S)NC(=O)c2ccc(-c3ccccc3)cc2)cc1 | inconclusive: -27.7% |
| Cc1cccn2cc(-c3cc4ccccc4oc3=O)nc12 | inconclusive: -44.8% |
| CCN(CC)CCOc1ccc2c(c1)C(=NNC(=O)c1ccccn1)c1cc(OCCN(CC)CC)ccc1-2 | inactive: 109% |
| Cc1cccc(NC(=O)N2CCN(Cc3ccccc3)CC2)c1 | inconclusive: -60.9% |
| CC(=O)Nc1cccc(/C(C)=N/Nc2nc3ccccc3s2)c1 | active: -224% |
| CCCc1cc(C(=O)NC(C)C2CCCO2)cs1 (configuration not stated) | inconclusive: -50.5% |
| Cn1/c(=N/NC(=O)c2ccccc2F)sc2ccccc21 | inconclusive: -51% |
| Cn1nc(-c2ccc(Cl)cc2)c2cc(C(=O)N3CCOCC3)sc21 | inconclusive: -53.7% |
| O=C(O)c1ccc(-c2noc(-c3ccccc3F)n2)cc1 | inconclusive: -58.3% |
| CSC1=NSC2=NC(=O)/C(=C/c3coc4ccc(O)cc4c3=O)C(=N)N12 | inconclusive: -38.6% |
| CN1CCCC1CCNC1C2CC3CC(C2)CC1C3 (configuration not stated) | inconclusive: -52.3% |
| Cc1ccc(NC(=O)c2ccc([N+](=O)[O-])o2)cc1C | inconclusive: -50.8% |
| N#CCc1nn(-c2ccc(Cl)cc2)c(N)c1C#N | inconclusive: -47.2% |
| O=C(c1nc2ccccc2[nH]1)c1ccccc1[N+](=O)[O-] | active: -73.7% |

| SMILES | activity score |
| --- | --- |
| OCC1(CCCc2ccccc2)CCN(Cc2cnc(N3CCOCC3)s2)CC1 | inconclusive: -56.8% |
| Cc1ccc(/C=C2\SC(=S)N(CCCC(=O)Nc3cccnc3)C2=O)cc1 | inactive: 79.1% |
| Oc1ccc(N=Nc2ccccc2C(F)(F)F)c2cccnc12 | inactive: 71.6% |
| O=S(=O)(Nc1ccc(N2CCCCC2)cc1)c1ccccc1 | inconclusive: -54.1% |
| Cc1cc(SCC(=O)N/N=C/c2ccc(O)cc2O)c(C)cc1Br | inactive: 78.3% |
| N/C(=N\OC(=O)c1ccc(Cl)c(Cl)c1)c1cccc(CSc2ccccn2)c1 | inconclusive: -55.9% |
| Cc1ccc(CNC(=O)CSc2nc3ccsc3c(=O)n2NC(=O)c2ccccc2)cc1 | inconclusive: -60.1% |
| O=C(Cc1ccccc1)Nc1nc(=O)c2ccccc2s1 | inconclusive: -49.6% |
| CC1CCN(S(=O)(=O)c2ccc3c4c2CC(=O)N4CC(C)S3)CC1 (configuration not stated) | inconclusive: -49.7% |
| Cc1ccc(C(=O)CCC2CCCC2=O)cc1 (configuration not stated) | active: -100% |
| CC(C)c1nnc(NC(=O)c2ccc3c(c2)OCO3)s1 | inactive: 57.1% |
| CN(C)/C=C/C(=O)c1ccc(Cl)s1 | inconclusive: -48% |
| NC(N)=N/N=C/c1ccc(OCc2ccccc2Cl)cc1 | inconclusive: -53.8% |
| Cc1sc(NC(=S)NC(=O)c2ccco2)c(C#N)c1C | inconclusive: -59.2% |
| CCCN(CC1COc2ccccc2O1)C(=S)Nc1ccc(C)cc1 (configuration not stated) | inconclusive: -57.7% |
| CNC(=O)c1[nH]cnc1C(=O)Nc1ccc(C)cc1 | inconclusive: -35.4% |
| C/C(=N\OC(=O)c1ccc(OC(C)C)cc1)c1ccc(C)c(C)c1 | inconclusive: -58.9% |
| CC(/C=C/c1ccc2c(c1)OCO2)=N\NC(=O)c1ccccc1 | inconclusive: -57.5% |
| CC1=Nc2ccccc2/C1=C\c1nc(-c2ccccc2)oc1O | inconclusive: -47.1% |
| CC1CCc2cccc3c2N1c1cc(C#N)c(C#N)cc1O3 (configuration not stated) | inactive: 71.4% |
| CN(C)CCCNc1ccc(-c2cc(Nc3cccc(Cl)c3)ncn2)cn1 | inconclusive: -53% |
| C=CCN=Cc1c(C)[nH]n(-c2ccccc2)c1=O | inconclusive: -30.9% |
| COc1ccc(-c2cc(=O)c3cc(F)ccc3[nH]2)cc1 | inconclusive: -49.8% |

| SMILES | activity score |
| --- | --- |
| CC1=NN(c2ccc(C)cc2)C(=O)/C1=C\C=C\c1ccccc1 | inconclusive: -50.5% |
| Oc1c(CN2CCN(c3ccccc3)CC2)cc(Br)c2cccnc12 | inactive: 85.5% |
| CC(C)(C)c1ccc(SCCc2ccncc2)cc1 | inconclusive: -48% |
| O=C(COc1ccc2oc(-c3ccccc3)cc(=O)c2c1)Nc1ccccc1 | inconclusive: -58.7% |
| CCOC(=O)c1c(NC(=O)CSc2nnnn2-c2ccccc2OCC)sc2c1CC(C)(C)NC2(C)C | inconclusive: -34.8% |
| Cc1cc(-c2csc(NC(=O)c3cc4ccccc4o3)n2)c(C)n1C | inconclusive: -53.3% |
| C/C(=N\NC(=O)c1cc2c(s1)CCC(C)C2)c1ccncc1 (configuration not stated) | inconclusive: -60.7% |
| CC(C)(C)c1cc[n+](C2=C([O-])c3ccccc3C(=O)/C2=N\S(=O)(=O)c2ccccc2)cc1 | inactive: 84% |
| O=C(NC1=NCCS1)C1COc2ccccc2O1 (configuration not stated) | inactive: 98.2% |
| CC(=O)C1=C(O)C(=O)N(Cc2cccnc2)C1c1ccc(C(C)C)cc1 (configuration not stated) | inconclusive: -41% |
| CN(C)c1cccc(C(=O)n2cc(C(=O)c3cc(F)ccc3O)cn2)c1 | inconclusive: -55.9% |
| CS(=O)(=O)N1CCN(c2ccc(NC(=O)c3ccc([N+](=O)[O-])o3)cc2)CC1 | inactive: 72.2% |
| COc1ccc(/C=C/C(=O)c2ccc([N+](=O)[O-])o2)cc1OC | inactive: 61% |
| CCCCCCOc1ccc(OCC(O)CN2C(=O)NC(C)(C)C2=O)cc1 (configuration not stated) | active: -128% |
| CC(=O)c1sc(NC(=O)c2ccco2)nc1-c1ccccc1 | active: -115% |
| COC(=O)/C(C#N)=C/c1c[nH]c2ccccc12 | active: -96.4% |
| CC(=O)Nc1nc2ccc(-c3nc4ccccc4o3)cc2s1 | active: -108% |
| S=C(NCCc1ccc(Cl)cc1)NC1CCCC1 | inconclusive: -46.7% |
| COc1cc(/C=N/Nc2ncnc3sc4c(c23)CCC4)ccc1O | inconclusive: -44.6% |
| Cc1ccc(CNC(=O)C2c3ccccc3C(=O)N3CCc4ccccc4C23)o1 (configuration not stated) | inconclusive: -49.5% |
| Cc1nc(C)c2c(=O)cc(-c3ccccc3)[nH]c2n1 | inconclusive: -53.8% |
| Cc1ccc(C(=O)Nc2c3c(nn2C(C)(C)C)CS(=O)(=O)C3)cc1[N+](=O)[O-] | active: -79.3% |
| O=Cc1cccc(OC(=O)/C=C/c2ccco2)c1 | inconclusive: -61% |

| SMILES | activity score |
| --- | --- |
| O=C(NN=C(Cc1ccccc1)Cc1ccccc1)c1ccccc1F | inconclusive: -56.1% |
| Cc1cc(NCCCN2CCOCC2)n2ncc(-c3ccc(Cl)cc3)c2n1 | inconclusive: -58.1% |
| O=C(Cn1c2ccccc2c(=O)c2ccccc21)N/N=C/c1ccc(N2CCCC2)c([N+](=O)[O-])c1 | inactive: 111% |
| COc1ccc(/C=N/Nc2nc3ccccc3s2)cc1O | inactive: 59.7% |
| CCc1c(O)nc(SCC(=O)Nc2nc3ccccc3s2)n(-c2ccc(C)cc2)c1=O | inconclusive: -52.4% |
| Cc1nc2sc(-c3ccccc3)cc2c(=O)n1-n1cccc1 | active: -189% |
| CCCC(=O)N1CCCC(c2nc(-c3cccs3)no2)C1 (configuration not stated) | inconclusive: -50.8% |
| NC(=O)CCCn1c(C(=O)c2cc(Cl)c(N)c(Cl)c2)c2ccc([N+](=O)[O-])cc2[n+]1[O-] | inactive: 71.4% |
| O=C(c1ccccc1)N1CCN(c2ncnc3c2cnn3-c2ccccc2)CC1 | inconclusive: -54.2% |
| Cc1ccc2oc(C(=O)Nc3ccc(S(=O)(=O)Nc4onc(C)c4C)cc3)c(C)c2c1 | inconclusive: -41.9% |
| O=c1[nH]c(CSc2ncnc3sccc23)nc2ccccc12 | inconclusive: -52% |
| Cc1ccc(C(=O)NCc2ccc(F)cc2)s1 | inconclusive: -57.2% |
| CN1C(=O)C2C(c3ccc(N(C)C)cc3)=NN(Cc3ccccc3)C2C1=O (configuration not stated) | inconclusive: -47.3% |
| CC(=O)Nc1ccc(NC(=O)COc2ccccc2C(=O)Nc2cccc(Cl)c2Cl)cc1 | inactive: 41.1% |
| S=C(NCCc1ccccc1)N1CCOCC1 | inconclusive: -55% |
| COc1cc(NS(=O)(=O)c2ccc(C)cc2)c2ncccc2c1 | inactive: 68.6% |
| CC(Cc1cccs1)NC(=S)Nc1ccc(Cl)cc1 (configuration not stated) | inconclusive: -51% |
| O=C(Nc1ccccc1)C1C2/C=C\CCCCC21 (configuration not stated) | inconclusive: -57.8% |
| CC(C)(C)c1ccc(C(=O)Nc2sc3c(c2C(=O)O)CCC3)cc1 | inactive: 95% |
| Cc1cccc(NC(=O)c2ccc([N+](=O)[O-])o2)c1C | inconclusive: -48.9% |
| CCOC(=O)N1CC=C2C(C#N)=C(N)C(C#N)(C#N)[C@H](c3ccccc3OCC)[C@H]2C1 | active: -90.3% |
| O=C(c1cc(COc2ccc(F)cc2Cl)on1)N1CCCCC1c1cccnc1 (configuration not stated) | inconclusive: -55.4% |
| O=C(Cc1ccccc1[N+](=O)[O-])N1CCN(c2ccccc2F)CC1 | inconclusive: -24.9% |
